For 91 compounds, TGI and GI50 results are on record in PubChem BioAssay (NCI).

Several values for one entry are separate records, joined by “and”; a condition that tells them apart may be missing. Equal values may be shown once.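 Cultured in 96-well plates, cells were exposed to test compound for 48 hours across five concentrations. The concentration for 50% growth inhibition is given as GI50. TGI marks complete inhibition of growth.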

The subject of the assay is NCI-H322M lung. As to the kind of experiment: DTP human tumour cell line panel, 48 h.
Consider `CCCCCCC1=NOC(C(c2cc[nH]c2)N(C)[C@H](C(=O)OC)C(C)C)C1` (some centres not stated), for which the concentration for total growth inhibition (TGI) was above 100 µM.

As to `Cc1ncc([N+](=O)[O-])n1CCNC(=O)CCC(=O)NCCCn1ccnc1[N+](=O)[O-]`, the concentration for total growth inhibition (TGI) is above 100 µM.

Consider `CCC(C)CN=C(N)c1ccc(N2CCN(c3ccc(C(N)=NCC(C)CC)cc3)CC2)cc1` (configuration not stated), for which the GI50 is 27.9 µM and the TGI worked out at 95.7 µM.

For the compound `COc1ccc2c(c1OC)OC[C@@H](C1=CC(=O)C=C(O)C1=O)C2`, the TGI is 32 µM.

On to `CC1(c2ccc(Cl)cc2)NC(=NCCO)c2ccccc21` (configuration not stated), for which the TGI was above 100 µM.

Regarding `CC(C)(C(=O)NCC(F)(F)C(F)(F)F)C(=O)N[C@@H]1C(=O)Nc2ccccc2-c2ccccc21`, the GI50 was above 100 µM and the total growth inhibition concentration (TGI) is above 100 µM.

`CN(C)CCNS(=O)(=O)N(C)C` returned a total growth inhibition concentration (TGI) above 100 µM.

As to `N#CC(NCCc1ccccc1)c1ccc(C(C#N)NCCc2ccccc2)cc1` (configuration not stated), the TGI is above 100 µM.

Consider `O=C(OCc1ccccc1)c1nc2ccccc2n1S(=O)(=O)c1ccccc1`, for which the TGI was above 100 µM.

`CC(C)(C)OC(=O)N(CCCN)CCCCN` showed a TGI above 100 µM.

Turning to `COC(=O)c1ccc(C2SC(C)C(=O)N2NC(=O)C(O)c2ccccc2)cc1` (configuration not stated), the GI50 is above 100 µM and the concentration for total growth inhibition (TGI) is above 100 µM.

`Cc1ccccc1Cn1nc2ccccc2cc1=O` gave a TGI above 100 µM.

Take `CC1(C)OCC[C@@H]1[Si](C)(C)C`: the concentration for total growth inhibition (TGI) is above 100 µM.

As for `O=c1cc(/C=C/c2ccc(O)c(O)c2)cc(/C=C/c2ccc(O)c(O)c2)o1`, the concentration for total growth inhibition (TGI) was 23.1 µM and 23.5 µM.

`O=C(O)CCC1(C(=O)O)CCC(=O)c2ccccc21` (configuration not stated) gave a total growth inhibition concentration (TGI) above 100 µM.

As to `CC1C2CC(CC23OCC(CCl)O3)C1(C)C` (configuration not stated), the TGI is above 100 µM.

Regarding `NC(N)=N/N=C(\c1ccc(F)cc1)c1ccc(C(F)(F)F)cc1`, the TGI stood at 7.61 µM. This counts as single-digit micromolar.

Compound `O=[N+]([O-])/C(C(Cl)=C(Cl)Cl)=C(\Nc1cccc2ccccc12)n1nnc2ccccc21` yielded a TGI above 100 µM.

On to `O=C1c2ccccc2CC12CCC1(CC2)OCCO1`, for which the TGI is above 100 µM.

Regarding `COc1ccc(CNc2cnc3ccc(N)cc3n2)cc1OC`, the TGI is above 100 µM.

Take `CCOC(=O)c1ccc(N=Cc2ccc(N(CCC#N)CCC#N)cc2)cc1`: the TGI was above 100 µM.

`O=c1[nH]c(=O)n(C2CC(O)C(CO)O2)cc1/C=C/Br` (configuration not stated) returned a concentration for total growth inhibition (TGI) above 100 µM.

Take `O=C1OC(Cl)C(N=P(c2ccccc2)(c2ccccc2)c2ccccc2)=C1Cl` (configuration not stated): the TGI was above 100 µM.

Compound `CCCCCCCCCCCCCCCC(=O)Nc1ccn(C2CC(OP(=O)(O)OCC3OC(n4cc(F)c(=O)[nH]c4=O)CC3OC(C)=O)C(CO)O2)c(=O)n1` (configuration not stated) showed a TGI above 100 µM.

Take `COc1cc(Br)c(CC2C3=C(CCN2C(=O)C2CCC2)CC2(CC3)OCCO2)cc1O` (configuration not stated): the TGI was above 100 µM.

For `CCC1c2[nH]c3ccccc3c2C[C@H]2C(=O)NC(Cc3c[nH]c4ccccc34)C(=O)N12` (some centres not stated), the total growth inhibition concentration (TGI) was above 100 µM.

Consider `CS(=O)(=O)Nc1ccc2c(c1)N(S(C)(=O)=O)CC2COS(C)(=O)=O` (configuration not stated), for which the total growth inhibition concentration (TGI) was above 100 µM.

As to `CN(C)[C@@H]1C(=O)C(C(=O)NCN2CCN(C(=N)N=C(N)N)CC2)=C(O)[C@@]2(O)C(=O)C3=C(O)c4c(O)cccc4[C@@](C)(O)[C@H]3C[C@@H]12`, the concentration for total growth inhibition (TGI) is 11.9 µM.

As to `Cc1ccc(I)cc1N=C=S`, the TGI was determined as 71.9 µM.

As for `CCCCNC(=O)OCCN=C1c2ccccc2C(Br)C(Br)c2ccccc21` (configuration not stated), the concentration for total growth inhibition (TGI) is above 100 µM.

As for `O=C(O)C(CCc1ccccc1)N1C(=O)c2ccccc2C1=O` (configuration not stated), the total growth inhibition concentration (TGI) was above 100 µM.

With `COc1ccc(CCc2nc3cc(-c4c(C)noc4C)ccc3n2CCN2CCOCC2)cc1`, the GI50 was 27 µM and the TGI is above 100 µM.

Regarding `CCOC(=O)CC1C(O)C(=O)N(C)C1c1ccccc1` (configuration not stated), the TGI was above 100 µM.

The compound `CN(C)N=Nc1cn[nH]c1C(N)=O` registered a concentration for total growth inhibition (TGI) above 100 µM.

On to `COC(=O)C(C)NP(=O)(OCc1ccc(Cn2cnc3c(N)ncnc32)cc1)Oc1ccccc1` (configuration not stated), for which the GI50 is 70 µM and the TGI is above 100 µM.

With `CCCCCCCC/C=C/CCCCCCCC(=O)N(O)C1CC(n2cc(C)c(=O)[nH]c2=O)OC1CO` (configuration not stated), the concentration for total growth inhibition (TGI) came to 30.5 µM. That is a double-digit micromolar value.

Take `Cc1c(C)n(COCCO)c2ncnc(N)c12`: the TGI was above 100 µM.

The compound `O=S(=O)(Nc1nc2ccccc2n1S(=O)(=O)c1ccccc1)c1ccccc1` registered a TGI above 100 µM.

Compound `O=C1C(c2ccccc2)=[N+]([O-])c2ccc(Cl)cc21` displayed a TGI above 100 µM.

`[N-]=[N+]=Nc1ncnc2c1sc(=S)n2-c1ccccc1` registered a total growth inhibition concentration (TGI) above 100 µM.

For `CC[N-]c1nnnn1CC.[Au+].c1ccc([PH+](c2ccccc2)c2ccccc2)cc1`, the GI50 is 4.58 µM and the concentration for total growth inhibition (TGI) is 9.66 µM.

Compound `CNC(=O)c1ccc(C(=O)NCCCCCN(O)C(=O)CCC(=O)NCCCCCN(O)C(=O)CCC(=O)NCCCCCN(O)C(C)=O)c(O)c1O` gave a TGI above 100 µM.

For `COC(=O)[C@@H]1c2[nH]c3ccccc3c2C[C@@H]2c3ccccc3NC(=O)[C@@H]21`, the concentration for total growth inhibition (TGI) was above 100 µM.

With `C/C(=N\Nc1nc2ccccc2o1)c1ccc2ccccc2n1`, the total growth inhibition concentration (TGI) is above 100 µM.

With `CCNCCNc1cc(-c2ccc(Cl)c(Cl)c2)c(C#N)c2nc3ccccc3n12`, the GI50 was 1.76 µM and the TGI stood at 3.3 µM.

Consider `Cc1ccc(S(=O)(=O)NC2CCCCO2)cc1` (configuration not stated), for which the TGI was above 100 µM.

Consider `NC(N)=NCCN1CCCCCc2ccccc21`, for which the concentration for total growth inhibition (TGI) is above 10 µM.

Compound `Cc1ccc(S(=O)(=O)C2=C([Si](C)(C)C)C3CC2[C@@H]2C4C=CC(CC4)[C@H]32)cc1` (some centres not stated) displayed a total growth inhibition concentration (TGI) above 100 µM.

For `CC[O-].CC[O-].CN(C)c1ccc([O-])cc1.CN(C)c1ccc([O-])cc1.[Ti+4]`, the GI50 is 42.6 µM and the concentration for total growth inhibition (TGI) was above 100 µM.

As for `Cc1cccc(-n2cnc3cc(C(=O)N4CCCCC4)ccc32)c1`, the GI50 was above 100 µM and the total growth inhibition concentration (TGI) was above 100 µM.

In turn, `CCN(CC)C(=S)SS(=O)(=O)c1ccc(N)cc1` came in with a TGI above 100 µM.

`NC1(P(=O)(O)O)CCCCC1` registered a TGI above 100 µM.

For the compound `C=C1CC[C@]2(C)[C@H](CC[C@@]34C[C@@H](CC[C@H]32)[C@@H](C(=O)O)C4)C1(C)C`, the TGI was above 12.5 µM.

Compound `O=C(O)C(CO)N=Cc1nc(-c2ccccc2)oc1O` (configuration not stated) returned a TGI above 100 µM.

The compound `O=C(Cc1cc(=O)oc2cc(O)ccc12)N/N=C/c1ccc(N(CCCl)CCCl)cc1` gave a concentration for total growth inhibition (TGI) of 36.1 µM. That is a double-digit micromolar value.

`CC1(CO)OC(n2cnc3c(N)ncnc32)C(O)C1O` (configuration not stated) came in with a TGI above 100 µM.

Turning to `C#CC(F)(F)[C@]1(O)CC[C@H]2[C@@H]3CCC4=CC(=O)CCC4=C3[C@@H](c3ccc(C4CC4)cc3)C[C@@]21C`, the GI50 was 6.08 µM and 4.26 µM; the total growth inhibition concentration (TGI) was above 100 µM.

For the compound `CCOc1ccccc1C(=O)/C=C/c1cc2ccccc2[nH]c1=O`, the 50% growth inhibitory concentration (GI50) was 0.149 µM and the concentration for total growth inhibition (TGI) was 2.4 µM.

In the case of `COc1ccc(/C=C/C(=O)Nc2cc(/C=C\c3cc(OC)c(OC)c(OC)c3)cc(OC)c2OC)cc1OC`, the GI50 was 4.66 µM and the concentration for total growth inhibition (TGI) is above 100 µM.

As to `CN1CCN(Cc2nc3cccc4c3c([n+]2[O-])-c2ccccc2-4)CC1`, the TGI is above 100 µM.

In turn, `Cc1ccc2c(/C=C/c3ccc(N(C)C)cc3)ccnc2c1C` displayed a total growth inhibition concentration (TGI) of 40.9 µM.

For the compound `COc1ccc(N)c(C(=O)CCNC(C)=O)c1`, the TGI is above 100 µM.

In the case of `CCCCCCCCCCCCC(CC)CCCCC(=O)O` (configuration not stated), the total growth inhibition concentration (TGI) was above 100 µM.

Compound `N#CNC(=NCc1ccccc1)NCc1ccccc1` yielded a total growth inhibition concentration (TGI) above 100 µM.

Compound `CCOC(=O)c1ccc(O)cc1` yielded a TGI above 100 µM.

In turn, `O=C1C2=C(C(c3ccccc3)=C1c1ccccc1)c1ccccc1C1(c3ccccc3)C2=C(O)C(c2ccccc2)=C1c1ccccc1` (configuration not stated) showed a TGI above 100 µM.

Compound `CCOC(=O)c1cc(C)n(CN(CCO)Cn2nc(C(=O)OCC)cc2C)n1` registered a TGI above 100 µM.

Regarding `COc1cc2c3c(n(CCCN)c(=O)c2cc1OC)-c1ccc(N(C)C)cc1C3=O`, the GI50 is 17.6 µM and the TGI was 33.1 µM.

As to `COC(=O)Nc1nc2ccc(NS(=O)(=O)c3ccc(Cl)cc3)cc2[nH]1`, the TGI worked out at 37.9 µM.

Take `COc1cc(-c2cc(-c3nc4ccc(F)cc4[nH]3)[nH]n2)cc(OC)c1OC`: the GI50 was 2.58 µM and the TGI amounted to 11.3 µM.

Turning to `CC(=O)OCc1cc(=O)n2c([nH]c3ccccc32)c1C#N`, the TGI was above 100 µM.

Regarding `c1ccc(P2c3ccccc3Nc3ccccc32)cc1`, the TGI was above 100 µM.

As to `CCCCCCCCCCCCCCCC(=O)Nc1ccn([C@@H]2O[C@H](CO)[C@@H](O)[C@@H]2C#N)c(=O)n1`, the GI50 is 18.1 µM and the TGI is 42.9 µM.

Regarding `COc1ccc(-c2csc(=[N+]3CCCCC3)s2)cc1`, the concentration for total growth inhibition (TGI) was determined as 48.6 µM.

`Cc1ccc(C(=O)N/N=C(\N=Nc2cccc(C)c2)c2ccc(N(CCC#N)CCC#N)cc2C)cc1` gave a TGI above 100 µM.

`CCOc1ccc(C2Oc3c(cccc3OC)C=C2[N+](=O)[O-])cc1OCC` (configuration not stated) returned a concentration for total growth inhibition (TGI) of 31.3 µM.

Take `COCCOc1nc(-c2ccccc2)nc2ccccc12`: the TGI was above 100 µM.

On to `CC(=O)/C(=C\c1ccccc1)C(=O)Nc1ccccc1`, for which the concentration for total growth inhibition (TGI) was above 100 µM.

Regarding `O=C1NC(N/N=C\C(O)C(O)C(O)C(O)CO)=N/C1=C\c1ccc(Cl)cc1` (configuration not stated), the TGI is above 89.3 µM.

Turning to `NS(=O)(=O)c1ccc(N=Nc2c(O)[nH]c3ccc(Cl)cc23)cc1`, the GI50 is 17.7 µM and the TGI is above 25 µM.

Turning to `O=C(NCCn1ccnn1)Nc1ccccc1`, the TGI was above 100 µM.

`C=C1C(=O)C23CC1CCC2C12CO[C@H](O)[C@H]1C(C)(C)[C@H](OC(C)=O)C[C@H]2OC3=O` (some centres not stated) gave a concentration for total growth inhibition (TGI) above 100 µM.

Compound `CC(=O)OC1COC(n2nc(N)nc2C)C(OC(C)=O)C1OC(C)=O` (configuration not stated) came in with a TGI above 100 µM.

`COc1ccc(N(CN2C(=O)CCC2OC)C(C)=O)cc1` (configuration not stated) returned a concentration for total growth inhibition (TGI) above 100 µM.

Consider `O=c1cc(-c2ccccc2)[nH]c2ccc(N3CCCC3)cc12`, for which the TGI is above 71.3 µM.

`COC(=O)C1(CCC(=O)N(C)c2ccccc2)NNC2C(=O)N(c3ccccc3)C(=O)C21` (configuration not stated): the TGI was above 10 µM.

In the case of `S=C1Nc2cnc3ccccc3c2SC1c1ccccc1` (configuration not stated), the TGI is above 100 µM.

Turning to `CC(C)C(=O)NCC[C@@H](CNC(=O)OC(C)(C)C)NC(=O)OC(C)(C)C`, the concentration for total growth inhibition (TGI) was above 100 µM.

`CC(C)NCCCNc1c2ccccc2nc2cccc([N+](=O)[O-])c12`: the GI50 was 0.0146 µM.

On to `CCCCc1ccc(Nc2nc3c(ncn3COCCBr)c(=O)[nH]2)cc1`, for which the TGI is above 100 µM.

`COc1ccc(-c2onc(-c3ccc([N+](=O)[O-])cc3)c2C2=NCCCN2)cc1` gave a TGI above 100 µM.
